Test results taken from publication PMC10668032.
This is one part of the list. At the low end of the ranking the order means little.

Target: SIX1 homeodomain (reference allele) (UniProt Q15475)
Assay: universal protein binding microarray
Settings: Universal all-10-mer PBM (8x60K, AMADID 030236), 300 nM GST-tagged protein, Alexa Fluor 488 anti-GST; buffer, salt, pH and temperature not stated; high values mean tight binding; most listed sequences are background and not binding sites; double strand, one strand shown

Sequence | binding signal
CATGATCG | 0.144 E-score
CAAAACTC | -0.0727 E-score
ATGTGGAG | -0.126 E-score
AACCGGGT | 0.119 E-score
AGCCCGCC | -0.0693 E-score
AACCTAAC | -0.201 E-score
AAATCGAT | 0.114 E-score
GTAGGTAA | -0.12 E-score
AGCGCCGG | -0.0618 E-score
GTCGACGA | -0.161 E-score
AGCAATAG | 0.05 E-score
ACCCAGAG | 0.0386 E-score
CCGTCTAA | 0.172 E-score
ACGTGCTA | -0.0495 E-score
TACCGCGA | 0.25 E-score
CCGATTGC | 0.0553 E-score
CAATATCC | 0.37 E-score
CGTGTGAC | -0.041 E-score
AGAGCGAC | -0.269 E-score
AGCGTGGC | -0.343 E-score
GACATATC | 0.386 E-score
ACCGTCCG | -0.222 E-score
AATTCCGT | -0.12 E-score
CATCGATG | 0.0867 E-score
CTCGGCCC | -0.134 E-score

Sequence | binding signal
GAACGGGC | -0.21 E-score
AGAAATGA | -0.2 E-score
AAATAAAC | -0.158 E-score
TAAAAAAA | -0.287 E-score
AAGAGGGA | -0.0679 E-score
AGTGAGCC | 0.225 E-score
AATGATAT | 0.44 E-score
ACTAATCA | -0.0219 E-score
GTTAACGA | -0.116 E-score
AACTAGGT | 0.123 E-score
CGAAGGTC | -0.256 E-score
GCGTTAAA | -0.168 E-score
CACGCATA | -0.00632 E-score
CCTCATGC | -0.0553 E-score
AGGACTCG | -0.0797 E-score
CGATTAGA | 0.205 E-score
GCCACCTA | -0.219 E-score
GCAGAAGA | -0.123 E-score
CGCGAGCC | -0.0245 E-score
AAGTGTCT | 0.0365 E-score
CTATCAGC | 0.202 E-score
AAAAAAGT | -0.167 E-score
AGTGGAAT | -0.0303 E-score
GGAGTTGA | 0.00327 E-score
ACTTAGTA | -0.0138 E-score

Sequence | binding signal
CATTTCAC | -0.194 E-score
ATCAATGA | 0.144 E-score
GCCGCGCA | -0.167 E-score
GCTGCCTA | -0.0964 E-score
CCACATAG | -0.0737 E-score
CGATTGCA | -0.108 E-score
GACTAAGC | -0.296 E-score
AGTGATCC | 0.452 E-score
CGAGTCTA | -0.136 E-score
ATCCAACC | 0.173 E-score
AGAAACGA | -0.112 E-score
TCAGACGA | 0.0458 E-score
ATAGGCCA | -0.082 E-score
GCACTCAC | -0.151 E-score
AGTACATC | -0.0814 E-score
ACGTCCTC | -0.13 E-score
CGCCAAAA | -0.0243 E-score
AACGTGAA | -0.203 E-score
CCCCTTGC | 0.0175 E-score
CTTCTGCA | 0.112 E-score
CACCCGTC | 0.0565 E-score
CGCGTACG | -0.0858 E-score
GGTGAACC | 0.0678 E-score
CAGCACAC | -0.0935 E-score
AATTACAG | -0.118 E-score

Sequence | binding signal
AAAGGGTA | 0.0288 E-score
AAGTCCTC | -0.213 E-score
CCAGGAGA | 0.158 E-score
CCCGTGTA | 0.171 E-score
AAGCGGCT | -0.203 E-score
AGAATCAA | 0.0512 E-score
GTATTTAA | 0.172 E-score
GACCTGCA | -0.17 E-score
ACTGTAAG | -0.00042 E-score
ATCACCCG | 0.397 E-score
ACGTGCCG | -0.122 E-score
GTAAGGTA | 0.0322 E-score
CGGAGGAG | 0.0602 E-score
ATCTCCAA | 0.142 E-score
GATGGTGC | -0.197 E-score
AACAGGTA | 0.00503 E-score
GTCCTCAC | -0.0408 E-score
AGTGACGA | -0.0926 E-score
CCGAGCCG | 8.5e-05 E-score
GACGTCCC | -0.164 E-score
ATATTTCC | 0.169 E-score
GGTTCGTA | -0.0075 E-score
CACTTACG | -0.0189 E-score
TCGCAAAA | -0.163 E-score
ATCGTTCA | 0.118 E-score

Sequence | binding signal
ACCCTTAT | 0.0845 E-score
ACGTCGCA | -0.173 E-score
GCTTGTGA | -0.222 E-score
CAATTAGA | 0.136 E-score
GCGATCTA | 0.218 E-score
ACTAATGG | -0.12 E-score
CGCTGTAC | -0.11 E-score
ATACCTCA | 0.352 E-score
ACACCACA | 0.328 E-score
ACTTAATC | 0.0193 E-score
CTCGCGAC | -0.0642 E-score
GGAGTCTA | -0.086 E-score
CACTACAC | 0.129 E-score
CCAAGAAG | -0.0271 E-score
CTGAGCTA | -0.084 E-score
CGCTCGGC | -0.024 E-score
GGGCCACA | -0.0276 E-score
CACAAGTG | -0.114 E-score
GGCCAATA | -0.0372 E-score
TAGCCACA | 0.0749 E-score
CGTGACCA | -0.118 E-score
CGGGAACA | -0.0886 E-score
GACGTGGC | -0.281 E-score
ACGATCCA | 0.284 E-score
AACCAAGG | -0.173 E-score

Sequence | binding signal
AACTGCAC | -0.0828 E-score
CATTTGCC | -0.205 E-score
ACTCCACC | -0.0268 E-score
GCCTATAA | 0.161 E-score
CAAAACGC | -0.288 E-score
CACTCATA | 0.24 E-score
ACCCTATG | 0.0101 E-score
AACGGCAA | -0.272 E-score
ACAAACAC | -0.0276 E-score
CGATCACA | 0.273 E-score
GTCCATAA | -0.139 E-score
ACTTAGCT | -0.167 E-score
AGGCGAAA | -0.14 E-score
TCTTGGAA | 0.0165 E-score
ACCTGTCC | -0.139 E-score
AATTCATA | -0.0467 E-score
TCCAAGAA | -0.0352 E-score
GTTTCATA | 0.0335 E-score
AGTATGGG | 0.0403 E-score
CGCTTGTC | -0.117 E-score
CGATGGCA | -0.036 E-score
ATCGGTTG | 0.238 E-score
ATCCTGGG | 0.235 E-score
CTCATTCC | 0.0252 E-score
GCATTTAA | -0.281 E-score

Sequence | binding signal
GTTGACTA | -0.158 E-score
CGTCAGTC | -0.228 E-score
CCAGGTAC | 0.0467 E-score
CTGCTTTA | -0.224 E-score
CGAATACG | 0.2 E-score
CGCGGACC | -0.193 E-score
CAATTTCC | -0.143 E-score
AAATTAGT | -0.203 E-score
TCTTAGAA | -0.0363 E-score
ATAGTTGG | -0.0335 E-score
ACAGCCTG | -0.176 E-score
ACAGCAAA | -0.133 E-score
ACTAGACT | -0.081 E-score
ATAGAAGA | -0.121 E-score
AGCACCAT | -0.0721 E-score
CGAGGGGC | -0.123 E-score
CTCAAGTC | -0.142 E-score
ACTACATG | -0.00953 E-score
ACAGCTTC | -0.166 E-score
CATAGTTA | -0.0519 E-score
ATAGATAG | 0.167 E-score
GCGTTACA | -0.0302 E-score
CGGTTTTA | -0.022 E-score
ACCACTGC | -0.0458 E-score
CCACAGGC | -0.0147 E-score

Sequence | binding signal
CTTGGAGA | -0.00193 E-score
CCACGTGC | -0.0599 E-score
GTAACAAC | -0.26 E-score
AATCTGGA | 0.0634 E-score
CAGAAACC | 0.0324 E-score
TGGAGGAA | -0.0637 E-score
CCTGGCGA | -0.0144 E-score
AATAACGT | -0.127 E-score
ACTACATC | -0.0118 E-score
CCCAGCGC | -0.102 E-score
AACTCCGT | -0.12 E-score
GAGTAGCC | -0.0944 E-score
GAAATGTC | -0.144 E-score
CGGATAGA | 0.355 E-score
AACGAAAA | -0.211 E-score
GTACAGCA | -0.146 E-score
TCTGAACA | 0.129 E-score
GCAAAGCC | -0.245 E-score
AGCGTTTC | -0.262 E-score
CGGTAAGC | -0.065 E-score
GACGATGC | -0.111 E-score
CCACGTAC | -0.1 E-score
AATTTTGA | -0.105 E-score
AAGTGTAA | -0.0758 E-score
ATACTTTG | 0.253 E-score

Sequence | binding signal
CGAGATAA | 0.0897 E-score
ATAAATAC | 0.163 E-score
GATAGACA | 0.135 E-score
CCCGGGCA | 0.143 E-score
ACCCGGGG | 0.094 E-score
AATTAACT | -0.29 E-score
AGTAAGTC | -0.117 E-score
ACATTACA | -0.0935 E-score
AGTGTCAG | 0.115 E-score
CTATTGAG | 0.121 E-score
TCAACCGA | 0.149 E-score
CAGCGGAC | -0.198 E-score
ATTTCGTC | 0.0288 E-score
AGATGTCG | -0.0943 E-score
ACAATTCT | -0.249 E-score
GAATAGTA | 0.113 E-score
CAACAACA | 0.0126 E-score
AGTAATCG | -0.0635 E-score
GTACGCGA | -0.117 E-score
